Measurements reported in PubChem BioAssay AID485281 (National Center for Advancing Translational Sciences (NCATS), 2010).
In all, about 350,000 compounds went through this assay and about 260 (0.074%) were called active. Inconclusive means that the source gave no clear call. Such entries were picked first, then a sample of the others. The call rests on the fitted dose curve; in most records, active means well fitted inhibition curve with a large enough effect; inconclusive means small, poorly fitted or top-dose-only effect; inactive means no such curve, though single readings can be large or run the other way. Where the call is inconclusive, the potency comes from a doubtful curve fit.

Biological target: Ferritin light chain (Equus caballus) (UniProt P02791)
Assay: qHTS Assay for Identification of Novel General Anesthetics; further: nearly all actives have a fitted effect of over 20% in size
Conditions: apoferritin/1-aminoanthracene competitive binding, fluorescence; activity change, negative = displacement: at 77.5 µM (top of the series)
Procedure, shortened: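 In PBS, apoferritin at 10 uM is loaded with 1-AMA from a 50% saturated solution. After 10 min of compound exposure at ambient temperature, reduced 535 nm fluorescence indicates probe displacement.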
On the % scale 0 is the no-effect control and ±100 the full control effect; potency means the concentration at half of the fitted maximal effect; tags describe the fitted curve by direction and shape.

Sequence of UniProt P02791 (P02791 whole entry, looked up): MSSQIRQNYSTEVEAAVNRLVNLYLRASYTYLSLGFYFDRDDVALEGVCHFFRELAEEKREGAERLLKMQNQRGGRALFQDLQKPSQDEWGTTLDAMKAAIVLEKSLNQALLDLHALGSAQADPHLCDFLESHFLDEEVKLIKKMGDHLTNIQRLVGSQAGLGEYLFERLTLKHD

Activity change, negative = displacement, inactive:
CC(=O)Nc1cccc(NC(=O)c2cccc(-c3ccc(O)cc3)c2)c1 4.42%
CC(=O)Nc1ccc(Oc2cc(C#N)c(C#N)cc2N2CCCCCC2)cc1 1.37%
CCC(=O)Nc1ccc(C(=O)OCC(=O)c2ccc(C)c([N+](=O)[O-])c2)cc1 -15%
O=C(O)Cc1sc(N/N=C\c2ccncc2)nc1-c1ccccc1 -23.6%
COCCNC(=O)CN1C(=O)NC2(CCCc3cc(OC)ccc32)C1=O (stereo not drawn) -6.2%
Cc1cc(C)c(Cn2c(C(O)c3ccccc3)nc3ccccc32)c(C)c1 (stereo not drawn) 12.2%
O=C(CCO)c1ccc(O)cc1 -6.36%
O=[N+]([O-])c1ccc(Sc2nnnn2-c2ccccc2)nc1 -16.7%
COc1cc(/C=C2\SC(=S)NC2=O)ccc1OS(=O)(=O)c1ccccc1 -18.2%
Cc1cccc(C)c1NC(=O)Cn1nc(C)c2sc3ccccc3c2c1=O -10.9%
Cc1cccc(-n2[nH]c(C)c(C=Nc3ccc4[nH]c(=O)[nH]c4c3)c2=O)c1 4.29%
CCCC(=O)Nc1nc(-c2ccc3c(c2)OCCO3)cs1 -11.8%
Cc1nc2c(C(=O)NC(C)c3ccccc3)cnn2c(C)c1Cc1ccccc1 (stereo not drawn) -6.11%
CSc1ccc(C2Nc3ccccc3-c3cc(C)nn32)cc1 (stereo not drawn) 1.09%
OC(CN1CCN(Cc2ccccc2)CC1)c1ccccc1 (stereo not drawn) 0.609%
O=C(NNC(=O)c1c(O)c2ccccc2[nH]c1=O)c1ccccc1 -3.94%
N#C/C(=N\Nc1ccccc1)C(=N)N1CCCCCC1 -11%
CCC(C)[C@H](NC(=O)[C@@H]1Cc2ccccc2CN1C(=O)OC(C)(C)C)C(=O)NCC1CCC(C(=O)O)CC1 (stereo partly drawn) 1.29%

Potency, inactive:
COc1ccc(NC(=O)c2ccc(COc3ccccc3OC)o2)cc1OC

Potency, inconclusive:
C=CCn1c(SCC(=O)c2ccc(Cl)cc2)nnc1-c1ccc2c(c1)OCO2 15.8 µM [inhibitor, partial curve]
O=C1Cc2ccccc2Sc2ccc(O)cc21 35.5 µM [inhibitor, single point]
CCOc1ccc(NC(=O)c2oc3ccccc3c2NC(=O)c2c(F)cccc2F)cc1 56.2 µM [inhibitor, partial curve]
Nc1nc(-c2ccco2)c(-c2ccco2)s1 39.8 µM [inhibitor, single point]
O=c1c(S(=O)(=O)c2ccccc2)cn(Cc2ccc(F)cc2)c2cc(N3CCCCC3)c(F)cc12 3.16 µM [inhibitor, full curve, poor fit]
Cc1cc(Nc2ncc(Cl)cc2Cl)n[nH]1 22.4 µM [inhibitor, partial curve]
CCC(Sc1nc2ccncc2[nH]1)C(=O)Nc1ccc(C)c(Cl)c1 (stereo not drawn) 39.8 µM [inhibitor, single point]
CCN(CC)C(=O)C1CCCN(c2ncnc3c2cnn3-c2ccc(Cl)cc2)C1 (stereo not drawn) 25.1 µM [inhibitor, partial curve, poor fit]
Cc1ccc(NC(=O)[C@H](Cc2c[nH]c3ccccc23)NC(=O)[C@@H]2Cc3ccccc3CN2)c(C)c1 1.78 µM [inhibitor, full curve, poor fit]
CCn1cc(C(=O)NCc2ccccc2)c(=O)c2cc(S(=O)(=O)N3CCCCCC3)ccc21 10 µM [inhibitor, partial curve]
CCOC(=O)/C(=N\Nc1ccccc1)S(=O)(=O)c1ccccc1 22.4 µM [inhibitor, partial curve]
CCN(CC(=O)Nc1ccc2c(c1)OCCO2)c1nc(-c2cccnc2)nc2ccccc12 7.08 µM [inhibitor, partial curve]
CC1=C(Sc2ccccn2)C(=O)NC(C)(C)C1 25.1 µM [inhibitor, partial curve]
CCOC(=O)C1CCCCN1Cc1ccc(F)c(Br)c1 (stereo not drawn) 31.6 µM [inhibitor, single point]
O=C(Cc1ccc(S(=O)(=O)N2CCCC2)s1)NC1CCCCCC1 39.8 µM [inhibitor, partial curve]
COc1ccccc1CC(=O)N1CCN(c2cccc(C(F)(F)F)c2)CC1 28.2 µM [inhibitor, single point]
COc1cccc(C=Nc2ccc3c(c2)CCC3)c1O 22.4 µM [inhibitor, single point]
COc1ccccc1-c1cc(C(=O)NCc2ccccc2)no1 14.1 µM [inhibitor, partial curve]
O=Cc1ccc(OCC(=O)NC(=O)NC2CCCCC2)cc1 25.1 µM [inhibitor, partial curve]
CN(C)S(=O)(=O)c1cccc(NC(=S)Nc2ccc(Cl)cc2Cl)c1 50.1 µM [inhibitor, single point]
CC(=O)c1ccc(N2CCN(C(=S)Nc3ccccc3C(F)(F)F)CC2)cc1 31.6 µM [inhibitor, single point]
Cc1ccc(-c2nc(CN3CCCC(C(=O)N4CCOCC4)C3)c(C)o2)cc1 (stereo not drawn) 35.5 µM [inhibitor, single point]
COc1cccc(C(=O)c2cn(CC(=O)Nc3cccc(C)c3C)c3nc(C)ccc3c2=O)c1 25.1 µM [inhibitor, single point]
COc1ccc(C2/C=C\CN(C(=O)Nc3ccccc3)CC(=O)N2Cc2ccc(F)cc2)cc1 (stereo not drawn) 22.4 µM [inhibitor, single point]
Cc1ccc(N2C(=O)N(CC(=O)NCc3ccc(Cl)cc3)C(=O)C2C)cc1 (stereo not drawn) 35.5 µM [inhibitor, partial curve]
Cc1ccc(NC(=O)CCC(=O)OC(C(=O)c2ccc(C)c(C)c2)c2ccccc2)c(C)c1 (stereo not drawn) 31.6 µM [inhibitor, partial curve]
CCC(C(=O)NCCc1ccc(C)cc1)n1nc(C)c2c(C)n(-c3ccccc3)nc2c1=O (stereo not drawn) 17.8 µM [inhibitor, partial curve]
Cc1cc(C(=O)OCC(=O)N2CCN(c3ccccc3)CC2)c2ccccc2n1 44.7 µM [inhibitor, partial curve]
CCS(=O)(=O)c1nc(S(=O)(=O)c2ccc(C)cc2)c(N2CCC(C)CC2)s1 28.2 µM [inhibitor, partial curve]
S=C(NCCC1=CCCCC1)NCc1ccco1 25.1 µM [inhibitor, partial curve]
Nc1ccccc1NC1CCCCC1 35.5 µM [inhibitor, partial curve]
CCCCn1c(N)c(N(CCC(C)C)C(=O)CSc2nnc(C)s2)c(=O)[nH]c1=O 25.1 µM [inhibitor, partial curve]
O=C1C(Cl)=C(N2CCCCC2)C(=O)N1c1ccccc1Cl 39.8 µM [inhibitor, single point]
COc1ccc(-n2c(Cc3cccn3C)nnc2SCC(=O)Nc2ccc(Cl)cc2)cc1 17.8 µM [inhibitor, partial curve]
COc1ccc(CN2CCNC(=O)C2CC(=O)NCCCC2CCCC2)c(F)c1 (stereo not drawn) 35.5 µM [inhibitor, partial curve]
CCC(=O)Nc1nnc(S(=O)(=O)N2CCc3ccccc32)s1 14.1 µM [inhibitor, partial curve]
Cc1ccc(S(=O)(=O)NC(C)CCc2ccccc2)cc1 (stereo not drawn) 31.6 µM [inhibitor, single point]
Cc1ccc(S(=O)(=O)N/N=C2/CC(c3ccccc3)Oc3ccccc32)cc1[N+](=O)[O-] (stereo not drawn) 39.8 µM [inhibitor, partial curve]
Cc1cccc(/C(N)=N/OC(=O)Cc2cccs2)c1 28.2 µM [inhibitor, partial curve]
CCC(C)C(=O)Nc1cccc(SC)c1 (stereo not drawn) 20 µM [inhibitor, partial curve]
COc1cc(C(=O)NC(=S)Nc2ccccc2N2CCOCC2)cc(OC)c1OC 22.4 µM [inhibitor, partial curve]
CC(C)(C)c1ccc(C2C3=C(CCCC3=O)NC3=C2C(=O)c2ccccc23)cc1 (stereo not drawn) 11.2 µM [inhibitor, partial curve]
COc1ccc(CCC(=O)OCC(=O)c2cccc(OC)c2)cc1 15.8 µM [inhibitor, partial curve]
COc1ccccc1CNC(=O)C(C)n1cccc1C(=O)c1ccccc1 (stereo not drawn) 35.5 µM [inhibitor, partial curve]
O=C(c1cc(=O)c2ccccc2o1)N1CCCc2ccccc21 31.6 µM [inhibitor, partial curve]
Cc1c(O)ccc(C(=O)COc2ccccc2F)c1O 28.2 µM [inhibitor, partial curve]
Cc1ccc(NC(=O)CNC(=O)OCc2ccccc2)cc1C 20 µM [inhibitor, partial curve]
CCn1c(SCc2ccccc2F)nc(=O)c2c(C(=O)OC)cc(C3CC3)nc21 44.7 µM [inhibitor, single point]
CC(=O)c1ccc(-c2ccc(-c3cc(=O)oc4c(C(C)C)ccc(C)c34)cc2)cc1 22.4 µM [inhibitor, partial curve]
